According to PubChem BioAssay AID1631 (National Center for Advancing Translational Sciences (NCATS), 2009):
About 890 (0.34%) of roughly 260,000 compounds were called active. Inconclusive results, whose numbers are uncertain, are shown with a selection of clear calls. Calls come from the whole dose curve; as a rule, active = well fitted activation curve with a large enough effect; inconclusive = small, poorly fitted or top-dose-only effect; inactive = no such curve, though single readings can be large or run the other way. No potency is given beside an inconclusive call; the fits are too rough.

Molecular target: Pyruvate kinase PKM (Homo sapiens) (UniProt P14618)
Assay: qHTS Assay for Activators of Human Muscle isoform 2 Pyruvate Kinase; note: nearly all actives have a fitted effect of over 55% in size
Settings: purified PKM2, Kinase-Glo ATP luminescence; Potency: activation; activation: at 57.5 µM (top of the series), 0% is enzyme alone, no compound
Outline: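 Purified hPK-M2 (>95% pure) converted ADP (0.1 mM final) to ATP with 0.5 mM PEP in 50 mM imidazole pH7.2, KCl, MgCl2, Tween 20, BSA; 1 h at room temperature. ATP detected by Kinase-Glo luminescence.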
% is set by controls: 0 for no effect and ±100 for the full control effect; potency is the fitted concentration of half-maximal effect; tags give direction and shape of the fitted curve.

Chain of UniProt P14618 (P14618 whole entry, looked up, canonical isoform): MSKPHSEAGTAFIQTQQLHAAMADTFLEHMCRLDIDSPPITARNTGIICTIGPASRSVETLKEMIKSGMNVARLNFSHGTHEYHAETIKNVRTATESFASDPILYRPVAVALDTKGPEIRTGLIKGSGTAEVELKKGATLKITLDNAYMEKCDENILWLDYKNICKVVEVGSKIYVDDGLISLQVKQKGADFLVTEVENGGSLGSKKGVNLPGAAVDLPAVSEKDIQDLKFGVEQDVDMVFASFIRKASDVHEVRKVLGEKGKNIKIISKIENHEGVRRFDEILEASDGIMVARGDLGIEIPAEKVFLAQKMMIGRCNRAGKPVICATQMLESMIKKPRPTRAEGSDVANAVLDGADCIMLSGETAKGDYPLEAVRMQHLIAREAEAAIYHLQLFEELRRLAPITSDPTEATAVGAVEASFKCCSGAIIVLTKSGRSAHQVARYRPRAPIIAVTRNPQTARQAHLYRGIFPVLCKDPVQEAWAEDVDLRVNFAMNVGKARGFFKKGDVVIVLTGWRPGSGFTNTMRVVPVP

SMILES | Potency | activation
O=C(c1cc(-c2ccco2)nn1-c1cccc(Cl)c1)N1CCCCC1 | inconclusive [rising, partial curve] | –
Cc1ccc(S(=O)(=O)Nc2ccc3oc(=O)sc3c2)c(C)c1 | inconclusive [rising, full curve] | –
COc1ccc2cc(/C(C)=N/NC(=O)C3CC3)ccc2c1 | inconclusive [rising, single point] | –
COc1ccc(/C=N/NC(=O)CNC(=O)COc2ccccc2)cc1 | inactive | –
Cn1ccnc1C(O)c1cc(C(C)(C)C)c(O)c(C(C)(C)C)c1 (centres undefined) | inconclusive [rising, single point] | –
COc1ccc(C(=O)Nc2scc(-c3ccc(Cl)cc3Cl)c2C(N)=O)cc1 | inconclusive [rising, full curve, poor fit] | –
COc1ccc(-c2cc(=O)[nH][nH]2)cc1 | inconclusive [rising, single point] | –
O=C1NN(c2ccccc2)C(=O)/C1=C\c1ccc2c(c1)OCO2 | – | inactive: 1.21% [at 11.5 µM, 0% is enzyme alone, no compound]
Cc1c(C(=O)Nc2cccc(C(F)(F)F)c2)oc2ccc(S(=O)(=O)N3CCOCC3)cc12 | inconclusive [rising, single point] | –
CC(=C/c1ccccc1)/C=N/n1c(C)n[nH]c1=S | – | inactive: 0.316% [at 11.5 µM, 0% is enzyme alone, no compound]
Cc1ccc(-c2nn(-c3ccccc3)cc2CN(Cc2ccccc2)C(=O)c2ccco2)o1 | active: 25.1 µM | –
CCOC(=O)C1CCN(C(=O)CN(c2ccc(OC)cc2)S(=O)(=O)c2c(C)noc2C)CC1 | inconclusive [rising, single point] | –
COc1cc(NS(=O)(=O)c2ccc(C)cc2C)cc(OC)c1OC | inconclusive [rising, full curve] | –
O=C(Nc1ccc(F)cc1)N(Cc1ccco1)Cc1cc2cc3c(cc2[nH]c1=O)OCO3 | inconclusive [rising, partial curve] | –
COc1ccc(Cc2c3cc(OC)c(OC)cc3cc[n+]2C)cc1OC | inactive | –
COc1cc(S(=O)(=O)n2ccc(C)n2)ccc1Cl | inconclusive [rising, partial curve] | –
CCOc1ccc2c(c1)s/c(=N\S(=O)(=O)c1ccc(OC)cc1)n2C(F)F | active: 1.58 µM | –
Cc1noc(NS(=O)(=O)c2ccc(N/C=C\C(=O)c3ccc(Br)cc3)cc2)c1C | inconclusive [rising, single point] | –
CS(=O)(=O)c1sc(C#N)c2c1C(=O)CC(c1ccccc1)C2 (centres undefined) | inconclusive [rising, partial curve] | –
Cc1cccc(NC(=O)CSc2nnc(-c3ccc(S(=O)(=O)N4CCCC4)cc3)o2)c1 | inconclusive [rising, partial curve] | –
Fc1ccccc1Cn1nnc2c(-n3ccnc3)ncnc21 | active: 1.12 µM | –
Cc1ccc(/C=N/NC(=O)c2ccc3ccccc3c2)s1 | inactive | –
O=C(CSc1nc(N2CCOCC2)nc(N2CCOCC2)n1)Nc1ccc([N+](=O)[O-])cc1 | inactive | –

SMILES | Potency | activation
CN(C)S(=O)(=O)c1ccc(C(=O)NCc2ccco2)cc1 | inconclusive [rising, partial curve] | –
COc1ccc2cc3c(N)nn(C(=O)C4CCC(C(C)(C)C)CC4)c3nc2c1 (centres undefined) | inactive | –
O=C1Nc2c(ccc(Cl)c2Cl)C(=O)C1(F)c1ccccc1 (centres undefined) | inconclusive [rising, partial curve] | –
COc1cccc(NC(=O)c2cc([N+](=O)[O-])ccc2NCc2cccnc2)c1 | inactive | –
CCOc1cc(NC(=S)NCC2CCCO2)c(OCC)cc1NC(=O)CC (centres undefined) | inconclusive [rising, single point] | –
O=C(Cn1c(=S)[nH]c2ccccc2c1=O)N1CCc2ccccc2C1 | inconclusive [rising, single point] | –
Cc1ccn2cc(-c3ccc(Br)cc3)nc2c1 | inactive | –
CC(/C=C/c1ccco1)=N\NC(=O)COc1ccc(C)c(C)c1 | inconclusive [rising, partial curve] | –
CC(=O)c1cccc(-n2c(CCC(=O)O)ccc2-c2cccs2)c1 | inconclusive [rising, partial curve] | –
Nc1cc(=O)[nH]c(SCCNS(=O)(=O)c2ccccc2)n1 | inconclusive [rising, single point] | –
Cn1c(SCC(=O)c2ccc(-c3ccccc3)cc2)nnc1-c1ccco1 | inconclusive [rising, single point] | –
COc1ccc(N2C(=O)CC(Sc3nnc(-c4ccccc4F)n3C)C2=O)cc1 (centres undefined) | inconclusive [rising, single point] | –
COCCn1nnnc1C(CC(C)C)N1CCN(c2cccc(OC)c2)CC1 (centres undefined) | inconclusive [rising, single point] | –
NC(=O)c1ccc(NCCc2ccccc2)c([N+](=O)[O-])c1 | inconclusive [rising, partial curve] | –
COc1ccc(/C=C2\C(=O)c3ccccc3OC2c2ccccc2)cc1 (centres undefined) | inactive | –
Cc1[nH]nc(N=CC2=C(O)CC(c3ccco3)CC2=O)c1-c1ccccc1 (centres undefined) | inconclusive [rising, partial curve] | –
O=C(Nc1ccc(F)cc1)N1CCCN(c2ccc(C(F)(F)F)cn2)CC1 | inconclusive [rising, partial curve] | –
O=c1[nH]c(CN2CCN(Cc3ccccc3)CC2)nc2scc(-c3ccccc3)c12 | inactive | –
CCn1c(=O)cc(OCC(=O)O)c2ccccc21 | inconclusive [rising, single point] | –
O=C(c1ccco1)N(CCO)Cc1cc2cc3c(cc2[nH]c1=O)OCO3 | inconclusive [rising, partial curve] | –
COc1cc(OC)cc(C(=O)N2CCN(C3CCCCC3)CC2)c1 | inconclusive [rising, full curve] | –
COc1ccc(C(=O)N/C(=C/c2cccs2)c2nc3ccccc3[nH]2)cc1OC | inconclusive [rising, single point] | –
CC1(C)CC(=O)C2=C(C1)OC1=C(C(=O)CC(C)(C)C1)C2c1ccc(O)cc1O | inconclusive [rising, partial curve] | –

SMILES | Potency | activation
O=C(C1CCCN(Cc2cccs2)C1)N1CCCCCC1 (centres undefined) | inconclusive [rising, single point] | –
C=C(C)CSc1cc(C)c(C#N)c2nc3ccccc3n12 | inconclusive [rising, partial curve, poor fit] | –
CC(CC(=O)O)CC(=O)N1CCN(S(=O)(=O)c2cccs2)CC1 (centres undefined) | inconclusive [rising, partial curve] | –
COc1cccc(CNCCNC(=O)c2ccco2)c1OC | inactive | –
COc1cc(/C=C2\SC(=O)N(CCNC(=O)c3sc4cc(F)ccc4c3Cl)C2=O)cc(OC)c1OC | inconclusive [rising, single point] | –
O=S(=O)(c1ccc(Br)cc1)c1nc(-c2ccccc2)oc1NCc1cccnc1 | inconclusive [rising, partial curve] | –
C=CCn1c(N)c(C(=O)NCc2ccco2)sc1=S | active: 8.91 µM | –
O=C1c2ccccc2C(=O)N1c1cccc(-c2csc(Nc3ccc4c(c3)OCO4)n2)c1 | inconclusive [rising, partial curve] | –
O=[N+]([O-])c1c(NCCCO)cc(SCc2ccco2)c2nonc12 | inconclusive [rising, partial curve] | –
CS(=O)(=O)c1ccc(NCCc2ccc(S(N)(=O)=O)cc2)c([N+](=O)[O-])c1 | inconclusive [rising, partial curve] | –
CCOC(=O)c1ccc(-n2c(C)ccc2C)cc1 | inactive | –
CCOC(=O)C1=C(c2ccccc2)OC(N)=C(C#N)C1c1ccncc1 (centres undefined) | inconclusive [rising, single point] | –
COc1ccccc1-c1cc(C(=O)Nc2cc(C)nn2-c2ccccc2)no1 | inconclusive [rising, single point] | –
CCCn1c(NCc2cccc(OC)c2O)nc2ccccc21 | active: 25.1 µM | –
Cc1ccc(CNC(=O)C2CCCN2C(=O)NCc2ccccc2)cc1 (centres undefined) | inconclusive [rising, single point] | –
Cc1ccc(NC(=S)NNC(=O)c2nn(C)c(C)c2Cl)cc1 | inactive | –
O=C(O)C1CC(=O)N(c2ccc3c(c2)OCCO3)C1 (centres undefined) | inactive | –
CCNC(=O)CN(c1ccc(Cl)cc1)S(=O)(=O)c1ccccc1 | inconclusive [rising, partial curve] | –
O=C(C1=C(O)C(=O)N(Cc2ccco2)C1c1cccnc1)c1cc2ccccc2o1 (centres undefined) | inconclusive [rising, single point] | –
Cc1ccc(NS(=O)(=O)c2ccc3[nH]c(=O)sc3c2)cc1 | inconclusive [rising, partial curve] | –
CC1CCN(CC(=O)Nc2ccc(S(=O)(=O)NC3CC3)cc2)CC1 | inconclusive [rising, single point] | –
COc1ccc(C(=O)Nc2c(C)cc(C)cc2C)cc1OC | inconclusive [rising, single point] | –
Cc1cccc(NC(=O)c2cc([N+](=O)[O-])ccc2NCC2CCCO2)n1 (centres undefined) | inconclusive [rising, single point] | –
